From the supplement of paper PMC6089552
The campaign covered roughly 3,200 compounds. About 300 (9.4%) showed activity. This is a selection; strong and weak results do not stand in their true shares.

Tested on: A673/TR/shEF
Test: cell viability (LOESS-normalised, relative to median of negative controls) (log2 ratio); higher = more viable cells (less compound effect), active = hit call of the paper (over 3 MAD below the median)
Conditions: treatment time: 72 h
Summary of the method: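 For three days, A673/TR/shEF Ewing sarcoma cells in 384-well plates (1,500 per well) were treated with library compounds at two or more concentrations or with DMSO controls, after doxycycline had been added or withheld 24 h beforehand to induce EWS-FLI1 shRNA knockdown. Viability was read by CellTiter-Glo luminescence on an Envision reader. The data were LOESS-corrected per plate, divided by the median of negative controls and log2-transformed.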

[1] = 0.103 µM, library screen: screen3, EWS-FLI1 expression: high (no doxycycline)
[2] = 0.103 µM, library screen: screen3, EWS-FLI1 expression: low (doxycycline-induced shRNA knockdown)
[3] = 0.308 µM, library screen: screen3, EWS-FLI1 expression: high (no doxycycline)
[4] = 0.308 µM, library screen: screen3, EWS-FLI1 expression: low (doxycycline-induced shRNA knockdown)
[5] = 0.926 µM, library screen: screen3, EWS-FLI1 expression: high (no doxycycline)
[6] = 0.926 µM, library screen: screen3, EWS-FLI1 expression: low (doxycycline-induced shRNA knockdown)
[7] = 2.8 µM, library screen: screen3, EWS-FLI1 expression: high (no doxycycline)
[8] = 2.8 µM, library screen: screen3, EWS-FLI1 expression: low (doxycycline-induced shRNA knockdown)
[9] = 8.3 µM, library screen: screen3, EWS-FLI1 expression: high (no doxycycline)
[10] = 8.3 µM, library screen: screen3, EWS-FLI1 expression: low (doxycycline-induced shRNA knockdown)
[11] = 25 µM, library screen: screen3, EWS-FLI1 expression: high (no doxycycline)
[12] = 25 µM, library screen: screen3, EWS-FLI1 expression: low (doxycycline-induced shRNA knockdown)
[13] = 0.25 µM, library screen: screen1, EWS-FLI1 expression: high (no doxycycline)
[14] = 0.25 µM, library screen: screen1, EWS-FLI1 expression: low (doxycycline-induced shRNA knockdown)
[15] = 2.5 µM, library screen: screen1, EWS-FLI1 expression: high (no doxycycline)
[16] = 2.5 µM, library screen: screen1, EWS-FLI1 expression: low (doxycycline-induced shRNA knockdown)
[17] = 0.25 µM, library screen: screen2, EWS-FLI1 expression: high (no doxycycline)
[18] = 0.25 µM, library screen: screen2, EWS-FLI1 expression: low (doxycycline-induced shRNA knockdown)
[19] = 2.5 µM, library screen: screen2, EWS-FLI1 expression: high (no doxycycline)
[20] = 2.5 µM, library screen: screen2, EWS-FLI1 expression: low (doxycycline-induced shRNA knockdown)

Measured: cell viability (log2)

Cc1cccc(-c2nn3c(c2-c2ccnc4ccc(C(N)=O)cc24)CCC3)n1
inactive: [1] 0.0571 | [2] -0.0167 | [3] 0.0796 | [4] -0.0106 | [5] -0.0323 | [6] 0.0532 | [7] -0.00816 | [8] -0.0468 | [9] -0.0341 | [10] 0.0453 | [11] -0.0652 | [12] 0.0398

COc1ccc(NC(=O)/C(=C/c2cccnc2)NC(=O)c2cccs2)cc1
inactive: [13] 0.123 | [14] 0.163 | [15] 0.1 | [16] 0.101

COc1ccc2c(c1)OC[C@@H](Cc1ccc(OC)c(OC)c1)C2=O
inactive: [13] -0.018 | [14] 0.0264 | [15] 0.11 | [16] 0.0741

O=C(Nc1ccc([N+](=O)[O-])cc1Cl)c1cc(Cl)ccc1O
inactive: 0.025 µM, library screen: screen2, EWS-FLI1 expression: high (no doxycycline) 0.126 | 0.025 µM, library screen: screen2, EWS-FLI1 expression: low (doxycycline-induced shRNA knockdown) -0.00156 | [13] 0.0925 | [14] 0.127 | [17] 0.121 | [18] 0.0336 | [15] 0.154 | [16] 0.0824 | [19] 0.147 | [20] 0.0985 | 25 µM, library screen: screen2, EWS-FLI1 expression: high (no doxycycline) 0.1 | 25 µM, library screen: screen2, EWS-FLI1 expression: low (doxycycline-induced shRNA knockdown) 0.0854

O=C(O)c1ccc(O)c2c1C(=O)c1cc(O)cc(O)c1C2=O
inactive: [13] 0.0473 | [14] -0.0191 | [15] 0.0745 | [16] 0.0247

CCOc1ccc(Cc2nccc3cc(OCC)c(OCC)cc23)cc1OCC
inactive: [13] 0.0902 | [14] 0.0955 | [15] 0.197 | [16] 0.00613

CC12CC3CC(C)(C1)CC(N)(C3)C2
inactive: [13] 0.0377 | [14] -0.0235 | [17] 0.182 | [18] 0.131 | [15] -0.00435 | [16] 0.0239 | [19] 0.082 | [20] 0.0933

CC(C)=CCc1c(O)cc2oc(C)cc(=O)c2c1O
inactive: [13] 0.0502 | [14] 0.0433 | [15] 0.123 | [16] 0.048

C[C@H](CCC(=O)O)[C@H]1CC[C@H]2[C@@H]3C(O)CC4=CC(=O)CC[C@]4(C)[C@H]3CC[C@]12C (stereo partly specified)
inactive: [13] 0.0418 | [14] -0.00533 | [15] 0.162 | [16] -0.0526

CCC[C@@H]1C[C@@H](C(=O)N[C@@H]([C@H]2O[C@H](SC)[C@H](O)[C@@H](O)[C@H]2O)[C@@H](C)O)N(C)C1
inactive: [1] 0.078 | [2] 0.0133 | [13] 0.123 | [14] -0.0307 | [3] 0.026 | [4] 0.0873 | [5] 0.0618 | [6] 0.077 | [15] 0.161 | [16] 0.176 | [7] 0.0838 | [8] 0.021 | [9] 0.028 | [10] 0.0347 | [11] -0.105 | [12] 0.117

CO[C@H]1C[C@@H]2CC[C@@H](C)[C@@](O)(O2)C(=O)C(=O)N2CCCC[C@H]2C(=O)O[C@H]([C@H](C)C[C@@H]2CC[C@@H](OC(=O)C(C)(CO)CO)[C@H](OC)C2)CC(=O)[C@H](C)/C=C(\C)[C@@H](O)[C@@H](OC)C(=O)[C@H](C)C[C@H](C)/C=C/C=C/C=C/1C
active: [1] -0.862 | [2] -0.712 | [3] -0.972 | [4] -0.713 | [5] -0.859 | [6] -0.683 | [7] -0.839 | [8] -0.886 | [9] -0.828 | [10] -0.678 | [11] -0.905 | [12] -0.717

CN1CCCN=C1/C=C/c1cccs1
inactive: [13] 0.0595 | [14] 0.108 | [15] 0.159 | [16] 0.236

CC(N)=NCc1cccc(CN)c1
inactive: [17] 0.131 | [18] 0.0338 | [19] 0.114 | [20] 0.119

CCC(=O)OCC(=O)[C@@]1(OC(=O)CC)[C@@H](C)C[C@H]2[C@@H]3CCC4=CC(=O)C=C[C@]4(C)[C@@]3(F)[C@@H](O)C[C@@]21C
inactive: [1] 0.116 | [2] 0.0802 | [13] 0.101 | [14] -0.806 | [3] 0.0157 | [4] 0.0752 | [5] 0.114 | [6] 0.0499 | [15] 0.142 | [16] -0.262 | [7] 0.0119 | [8] 0.0676 | [9] 0.0933 | [10] 0.128 | [11] 0.11 | [12] 0.137

CC1(C)O[C@@H]2C[C@H]3[C@@H]4C[C@H](F)C5=CC(=O)CC[C@]5(C)[C@H]4[C@@H](O)C[C@]3(C)[C@]2(C(=O)CO)O1
inactive: [13] 0.0479 | [14] -0.0893 | [15] 0.0397 | [16] -0.262

CC1=CCc2c(cc3oc(C)cc(=O)c3c2O)OC1
inactive: [13] 0.0735 | [14] 0.0537 | [15] 0.178 | [16] 0.174

CC1(C)CC2C1CCC1(C)OC1CCC2(C)O (stereo unspecified)
inactive: [13] 0.0946 | [14] 0.105 | [15] 0.0543 | [16] 0.0438

O=C1N=C(O)CN1/N=C/c1ccc(-c2ccc([N+](=O)[O-])cc2)o1
inactive: [13] 0.00489 | [14] 0.0859 | [17] 0.195 | [18] 0.124 | [15] 0.094 | [16] 0.0865 | [19] 0.0996 | [20] 0.0435

COc1ccc(/C=C/c2cc(O)cc(O[C@@H]3O[C@H](CO)[C@@H](O)[C@H](O)[C@H]3O)c2)cc1O
inactive: [13] 0.0642 | [14] 0.0827 | [15] 0.111 | [16] 0.162

CN(C(=O)CCCOc1ccc2[nH]c(=O)ccc2c1)C1CCCCC1
inactive: [17] 0.137 | [18] 0.0412 | [19] 0.156 | [20] 0.0867

NNC(=O)c1ccncc1
inactive: [1] 0.0921 | [2] 0.0306 | [13] 0.0192 | [14] 0.0479 | [3] 0.0876 | [4] 0.0956 | [5] 0.185 | [6] 0.0683 | [15] 0.138 | [16] 0.0125 | [7] 0.167 | [8] 0.115 | [9] 0.105 | [10] 0.0697 | [11] 0.0945 | [12] 0.108

CC1(C)C(=O)C=C[C@]2(C)C3CC[C@@]4(C)[C@H](c5ccoc5)OC(=O)[C@H]5O[C@]54[C@]3(C)C(=O)C[C@@H]12 (stereo partly specified)
inactive: [13] 0.0539 | [14] 0.0813 | [15] 0.0765 | [16] 0.119

CCN1CCCC1CNC(=O)c1cc(S(N)(=O)=O)ccc1OC (stereo unspecified)
inactive: [13] 0.0596 | [14] 0.086 | [17] 0.121 | [18] 0.0393 | [15] 0.131 | [16] 0.024 | [19] 0.115 | [20] 0.0627

COc1ccc(-c2ccc3cc(C(=O)O)ccc3c2)cc1C12CC3CC(CC(C3)C1)C2
inactive: [1] 0.102 | [2] 0.161 | [3] 0.115 | [4] 0.135 | [5] 0.165 | [6] 0.126 | [7] 0.00566 | [8] 0.133 | [9] 0.0112 | [10] 0.0627 | [11] 0.0426 | [12] 0.101

O=C(O)c1cc2cc(F)ccc2[nH]1
active: [17] -0.173
inactive: [13] 0.0776 | [14] -0.00933 | [18] 0.0925 | [15] 0.156 | [16] 0.00267 | [19] 0.154 | [20] 0.0908

O=C(O)c1cccnc1
inactive: [1] 0.122 | [2] 0.0859 | [13] 0.026 | [14] 0.0468 | [3] 0.125 | [4] 0.0891 | [5] 0.033 | [6] 0.0696 | [15] 0.14 | [16] 0.000707 | [7] 0.00382 | [8] 0.0785 | [9] 0.0287 | [10] 0.0629 | [11] 0.0609 | [12] 0.0367

CCCCc1oc2ccccc2c1C(=O)c1cc(I)c(OCCN(CC)CC)c(I)c1
inactive: [13] 0.163 | [14] 0.0374 | [17] 0.0155 | [18] 0.134 | [15] 0.154 | [16] 0.147 | [19] 0.103 | [20] 0.193

O=c1cccc2ccc(O)c(O)c2c1O
inactive: [13] 0.0319 | [14] -0.0442 | [15] 0.142 | [16] -0.0155

O=C(O)CSc1nnc(COc2ccccc2)n1-c1ccc(Cl)cc1
inactive: [13] 0.0719 | [14] -0.0199 | [15] 0.0305 | [16] 0.0659

N[C@@H](COP(=O)(O)O)C(=O)O
inactive: [17] 0.136 | [18] 0.0963 | [19] 0.109 | [20] 0.0529

Cc1cccc(N(C)C(=S)Oc2ccc3ccccc3c2)c1
inactive: [13] 0.128 | [14] 0.0463 | [15] 0.15 | [16] 0.162

CC1(COc2ccc(CC3SC(=O)NC3=O)cc2)CCCCC1 (stereo unspecified)
inactive: [17] 0.267 | [18] 0.13 | [19] 0.13 | [20] 0.0913

COc1ccc(-c2coc3cc(O)ccc3c2=O)c(OC)c1
inactive: [13] 0.0725 | [14] -0.0145 | [15] 0.104 | [16] -0.0119

O=C(O)CCC(=O)c1ccc(-c2ccccc2)cc1
inactive: [13] 0.0194 | [14] -0.00397 | [15] 0.14 | [16] 0.0593
